Tested on: CD8+ T cells from BVDV-immunized steers
Assay: Ex vivo IFN-γ ELISPOT screening of predicted peptides
Settings: 2.5 μg/ml peptide; for Level of IFN-γ+CD8+ T cell responses (in words): BVDV-immunized steers, SFC per million CD8+ T cells
Procedure: Anti-bovine CD8a mAb [7C2B clone, IgG2a isotype; WSU Monoclonal Antibody Center (WSUMAC), Item #BOV2019] and goat anti-mouse IgG microbeads (Miltenyi Biotec, Cat #130-048-402) were used for isolation of CD8+ T cells from splenocytes. Similarly, anti-bovine CD14 mAb (MM61A clone, IgG1 isotype; WSUMAC, Item #BOV2109), along with goat anti-mouse IgG microbeads, was used for the isolation of CD14+ monocytes from autologous PBMCs. The purity of the isolated subsets were determined to be 95-98% by flow cytometry (data not shown). Purified cell subsets were re-suspended in complete RPMI 1640 medium at appropriate dilution for IFN-γ ELISPOT assay.
IFN-γ responses in purified CD8+ T cells from the BVDV-immunized steers were evaluated by ELISPOT assay (Bovine IFN-γ ELISpot BASIC ALP kit, Mabtech, Cat #3119-2A) as in accordance with vendor's protocol and as previously described. Briefly, for all eight steers, 0.2×10^6 CD8+ T cells were co-cultured with 0.4×10^5 autologous CD14+ monocytes that were pulsed with 2.5 μg/ml of gamma-irradiated BVDV-1b TGAC or BVDV-2a A125 in a total volume of 100 μl complete RPMI 1640 medium in triplicate wells of MultiScreen-IP plates (MilliporeSigma™, Cat #MAIPS4510). Similar co-cultures incubated with 2.5 μg/ml of ConA or the medium alone served as positive and negative controls, respectively. The plates were incubated at 37° C. for 48 h and following processing, IFN-γ spots were enumerated using ELISPOT reader [ImmunoSpot® S6 Analyzer, Cellular Technology Limited]. The responses were reported as spot forming cells (SFC) per million CD8+ T cells after the background spot counts from negative control triplicates were deducted.
To screen the two-hundred predicted peptides, twenty pools of 10 peptides were generated and each peptide was diluted to a final concentration of 2.5 μg/ml in complete RPMI 1640 medium (Table 1). The peptide pools were tested for non-specific IFN-γ responses using PBMCs collected from naïve steers and no background responses were detected (data not shown). […] Additionally, a pool of previously defined BVDV CD4+ T cell epitope peptides (2.5 μg/ml of each peptide) was used as negative control. Peptide pools 4-7, 9, 10, and 18, stimulated IFN-γ+CD8+ T cells in the three steers and thus, individual peptides were tested to identify T cell epitopes.

[1] = all eight BVDV-immunized steers (TGAC and A125 groups together)
[2] = A125-immunized steers (n=4), splenic CD8+ T cells with autologous CD14+ monocytes
[3] = TGAC-immunized steers (n=4), splenic CD8+ T cells with autologous CD14+ monocytes

Row | Sequence | Steers with peptide-specific IFN-γ+CD8+ T cell responses [1] | Steers with peptide-specific IFN-γ+CD8+ T cell responses [2] | Steers with peptide-specific IFN-γ+CD8+ T cell responses [3] | Level of IFN-γ+CD8+ T cell responses (in words)
1 | ALFEAVQTI [Peptide 99] | all vaccinees except for one TGAC vaccinee | – | – | –
2 | ALRDFNPEL [Peptide 40] | – | 4/4 | 4/4 | –
3 | ALSKRHVPM [Peptide 177] | – | 3/4 | 4/4 | –
4 | AMAVLTLTL [Peptide 39] | – | 4/4 | 3/4 | –
5 | FEEASMCEI [Peptide 45] | all vaccinees | – | – | –
6 | FGAYAASPY [Peptide 86] | most of the TGAC and A125 vaccinees | 4/4 | 4/4 | –
7 | FVNEDIGTI [Peptide 65] | the majority of BVDV-immunized steers | – | – | –
8 | GPVYHRAPL [Peptide 61] | – | – | – | higher mean IFN-γ+CD8+ T cells in TGAC and A125 vaccinees than Npro106-114
9 | GSVWNLGKY [Peptide 56] | All BVDV-immunized steers | – | – | –
10 | IEFCSHTPV [Peptide 173] | most of the BVDV-immunized steers | – | – | high numbers of IFN-γ+CD8+ T cells
11 | IMFEAFELL [Peptide 43] | all vaccinees | – | – | –
12 | ISSKWQMVY [Peptide 82] | – | 4/4 | 4/4 | –
13 | KGYNSGYYY [Peptide 87] | – | 4/4 | 4/4 | –
14 | KSKTWFGAY [Peptide 88] | most of the TGAC and A125 vaccinees | – | – | –
15 | KTARNINLY [Peptide 81] | the majority of BVDV-immunized steers | – | – | –
16 | LMNKTQANL [Peptide 176] | most of the TGAC and A125 vaccinees | 4/4 | 4/4 | highest number of IFN-γ+CD8+ T cells
17 | MEILSQNPV [Peptide 172] | all vaccinees | – | – | –
18 | REHNKWILK [Peptide 38] | most of the BVDV-immunized steers | – | – | high numbers of IFN-γ+CD8+ T cells
19 | RYYETAIPK [Peptide 89] | most of the BVDV-immunized steers | – | – | high numbers of IFN-γ+CD8+ T cells
20 | SEQKRTLLM [Peptide 37] | all vaccinees | – | – | –
21 | SEVLLLSVV [Peptide 32] | All BVDV-immunized steers | – | – | –
22 | SVMLGVGAI [Peptide 63] | all vaccinees | – | – | –
23 | VMSRVIAAL [Peptide 69] | – | 3/4 | 3/4 | –
24 | WADFLTLIL [Peptide 97] | – | 4/4 | 4/4 | –
25 | YAASPYCEV [Peptide 47] | most of the TGAC and A125 vaccinees | – | – | –
26 | YETATVLVF [Peptide 34] | All BVDV-immunized steers | – | – | –
27 | YFEPRDNYF [Peptide 100] | – | 4/4 | 4/4 | very high levels
28 | YYDDNLNEI [Peptide 64] | the majority of BVDV-immunized steers | – | – | –
